Assay results taken from paper PMC9574860, “Chemical Toolkit for PARK7: Potent, Selective, and High-Throughput” (Journal of Medicinal Chemistry, 2022).
The campaign covered roughly 7,900 compounds. About 400 (5.1%) showed an effect of 50% or more. Some of the results follow.

What follows are molecules tested against Parkinson's disease protein 7 (PARK7/DJ1) (human, UniProt Q99497) (assay: primary screen, percent inhibition; read as competition with a fluorescent probe by fluorescence polarization; higher = more effect of the substance). Settings: 100 µM.
Sequence of Parkinson's disease protein 7 (PARK7/DJ1) (Q99497 whole entry, looked up, the tested form may be a part): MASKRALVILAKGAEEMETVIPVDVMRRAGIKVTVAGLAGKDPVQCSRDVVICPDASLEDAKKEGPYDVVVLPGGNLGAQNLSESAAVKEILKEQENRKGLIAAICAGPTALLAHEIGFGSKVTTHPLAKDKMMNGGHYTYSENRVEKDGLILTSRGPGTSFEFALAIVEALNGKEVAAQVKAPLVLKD
Experimental: The screen was conducted using the conditions as described above in 1536-well plates (Corning 3724) with a reaction volume of 8 μL per well. The compound library containing 7887 covalent fragments was purchased at Enamine Ltd. and received as 100 mM DMSO stocks in 384 well LDV Echo plates (Labcyte LP-0200). Stock solutions of 0.26 μM PARK7 and 80 nM JYQ-107 were prepared. Using a Labcyte Echo550 acoustic dispenser, 8 nL of the DMSO stock solution of the library compounds was transferred from the source plates into the empty 1536-well screening plates to obtain a 100 μM final compound concentration. Next, PARK7 (6 μL, final concentration 0.2 μM) was dispensed using a Biotek MultiflowFX liquid dispenser and incubated for 2 h, followed by dispensing the probe JYQ-107 (2 μL, final concentration 20 nM). After 2 h incubation, the FP signal was recorded on a BMG Labtech PHERAstar plate reader (λex/em 480/520 nm). The relative loss of FP signal compared with reference controls was used to calculate the remaining enzyme activity.

| SMILES | Inhibition % [%] |
| --- | --- |
| COc1ccc(-c2cc(CN3C(=O)CCC3=O)on2)cc1 | 2.16 |
| C=CC(=O)N1CCCC(c2nccs2)C1 (stereo not shown) | 14.5 |
| Cc1cc2[nH]ncc2cc1S(=O)(=O)F | 97.4 |
| CC1(C)OB(c2cc(F)cc(OC(F)F)c2)OC1(C)C | 10.3 |
| C=CC(=O)N1C[C@H](CC)CC[C@H]1C (racemic) | 10.5 |
| CN(Cc1ccc(Cl)cc1)C(=O)CCl | 48.5 |
| CN(CCO)c1ccnc(C#N)c1 | 7.91 |
| c1ccc(COCC2CO2)cc1 (stereo not shown) | 7.44 |
| C=CC(=O)N1CCC(S(=O)(=O)C(C)C)CC1 | 5.57 |
| C=CC(=O)NCC(c1ccc(Cl)cc1)n1cccn1 (stereo not shown) | -2.82 |
| OB(O)c1ccc(OC2CCCC2)cc1 | -3.51 |
| Cc1nc(NC(=O)CCl)sc1C | 10.6 |
| CCOc1ccc(Cl)cc1S(=O)(=O)n1ccnc1C | -1.43 |
| CCOc1ccc(S(=O)(=O)n2ccc(C)n2)cc1C(C)C | -1.14 |
| N#Cc1ncn(CCOc2ccc(Cl)cc2)n1 | 4.4 |
| CCc1ccc(OC)c(S(=O)(=O)n2cc(C)nc2CC)c1 | 11.8 |
| NC(=O)C1CCCC(n2c(S)nc3ccccc3c2=O)C1 (stereo not shown) | 7.16 |

| SMILES | Inhibition % [%] |
| --- | --- |
| O=C(CCCl)Nc1ccc(S(=O)(=O)N2CCCC2)cc1 | 3.33 |
| C=CC(=O)NC1CCOC2(CCCCC2)C1 (stereo not shown) | 5.69 |
| CC(C)C1NC(=O)C12CCC2 (stereo not shown) | 3.04 |
| C=CC(=O)NC1COCc2ccccc21 (stereo not shown) | 9.84 |
| CC(=O)Nc1ccc(NC(=O)CCl)cc1 | 4.19 |
| CCN(c1ccc(C(=O)CCl)cc1)S(C)(=O)=O | 95.1 |
| C=CC(=O)N1CCS(=O)(=O)CCC1C (stereo not shown) | 7.8 |
| CCC(O)(CC)CNc1ccc(Cl)c(C#N)n1 | 6.75 |
| N#Cc1nc(N2CCCC(CCO)C2)ccc1Cl (stereo not shown) | 9.52 |
| C=CC(=O)Nc1ccc(N2CCCC2=O)c(F)c1 | 8.38 |
| C=CC(=O)NC1CCN(c2c(F)cccc2F)C1=O (stereo not shown) | 15.3 |
| COC(=O)C1Cc2ccccc2CN1C(=O)CCl (stereo not shown) | 22.7 |
| C=CC(=O)NC1CCCC1 | 1.76 |
| CN(Cc1ccc(F)cc1)C(=O)CCl | 39.9 |
| C=CC(=O)N1C[C@H](F)C[C@H]1C(N)=O | 11.6 |
| O=S(=O)(Oc1cccnc1F)c1c[nH]c2ncccc12 | 15.8 |
| CCOc1cc(S(=O)(=O)n2ccnc2C)ccc1F | 10.6 |
